Test results: PubChem BioAssay AID485313 (National Center for Advancing Translational Sciences (NCATS), 2010)
In all, about 320,000 compounds went through this assay and about 7,600 (2.4%) were called active. This list was built around the results that the source calls inconclusive (neither active nor inactive); the mix of calls is not that of the screen. Calls come from the whole dose curve; as a rule, active = well fitted activation curve with a large enough effect; inconclusive = small, poorly fitted or top-dose-only effect; inactive = no such curve, though single readings can be large or run the other way. No potency is given beside an inconclusive call; the fits are too rough.

Assay: qHTS Assay for NPC1 Promoter Activators; note: nearly all actives have a fitted effect of over 60% in size; for activation: % of control where 0% means no effect
Settings: Huh7 NPC1 promoter luciferase reporter, 24 h; series mostly up to 9.22 µM; activation: at the top concentration
Procedure, shortened: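 Luminescence from an NPC1 promoter-driven luciferase reporter in stably transfected Huh7 cells was measured after 24 h compound treatment at 37 °C, followed by 10 min ambient incubation with luciferase detection reagent.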
Potency is the fitted concentration of half-maximal effect; tags give direction and shape of the fitted curve.

Compound | Potency | activation
CCN(Cc1ccccc1)C(=O)CCCOc1ccccc1 | inconclusive [activator, partial curve] | 
Nc1ccc(-c2nc3c(ccc4ccccc43)[nH]2)cc1 | inconclusive [activator, partial curve] | 
COc1ccccc1N1CCN(/N=C\c2ccccc2)CC1 | inconclusive [activator, partial curve] | 
CC(=C/c1ccco1)/C=N/N1CCN(c2ccccc2)CC1 | active: 2.51 µM | 
O=C(COC(=O)c1cccnc1Cl)NCc1ccc2c(c1)OCO2 |  | inactive: -3.93%
Oc1ccc(-c2nccc(-c3ccccn3)n2)cc1 | inconclusive [activator, single point] | 
COc1ccc2c(c1)CCc1c(C(=O)N(C)c3ccccc3)noc1-2 | inconclusive [activator, partial curve] | 
O=C(N/N=C1/CCc2ccccc21)C1CC1 |  | inactive: 7.43%
N#Cc1c(SCC(=O)Nc2ccc(Cl)cc2Cl)sc2c(O)cc(=O)[nH]c12 | inconclusive [activator, single point] | 
CCc1ccc2nc(N(CCCN(C)C)C(=O)c3ccc(S(=O)(=O)N(C)C4CCCCC4)cc3)sc2c1 | inconclusive [activator, partial curve] | 
CC(=O)Nc1ccc(C(=O)OCCCOC(=O)c2ccc(NC(C)=O)cc2)cc1 |  | inactive: 3.15%
CCOC(=O)N1CCN(C(=O)C2CC(=O)N(c3ccc(C)cc3)C2)CC1 (stereo unspecified) |  | inactive: -0.243%
Fc1ccccc1-c1cc2ccccc2cn1 | inconclusive [activator, partial curve] | 
COc1c(O)cc2c(c1O)C(=O)CC(c1ccccc1)O2 (stereo unspecified) | inconclusive [activator, single point] | 
FC(F)(F)c1ccnc(Oc2ccc(C3=NCCS3)cc2)c1 | inconclusive [activator, single point] | 
c1ccc(-c2ccc3[nH]ccc3c2)cc1 | inconclusive [activator, single point] | 
CN(C)S(=O)(=O)c1cccc(-c2nnc(-c3ccccc3)o2)c1 | inconclusive [activator, single point] | 
CC(=O)c1sc(NC(=O)c2ccc3c(c2)OCO3)nc1C | active: 2.51 µM | 
CN(CCc1ccccn1)C(=O)CCc1nnc(CCCc2ccccc2)o1 | inconclusive [activator, single point] | 
Cc1cc2ncc(-c3cccc(Cl)c3)cn2n1 | inconclusive [activator, single point] | 
Cc1ccsc1/C=C1\CCC(C2CCCC2)C1=O (stereo unspecified) | active: 2.82 µM | 
O=C(CC(=O)c1ccccc1O)c1cccc(F)c1 | inconclusive [activator, single point] | 
O=c1[nH]c2ccccc2nc1CCc1ccccc1 | inconclusive [activator, single point] | 
Cc1ccc(NC(=O)CCNCc2ccco2)cc1S(=O)(=O)N(C)C |  | inactive: -0.592%
O=C(OCC1CC(c2ccccn2)=NO1)c1ccc(Br)cc1 (stereo unspecified) |  | inactive: 11.8%
COc1cccc(NC(=O)CN(C)C(=O)c2ccc(COc3ccccc3)o2)c1 | inconclusive [activator, single point] | 

Compound | Potency | activation
COc1ccc(N(CC(=O)NCCc2cccc(C)c2)S(=O)(=O)c2c(C)noc2C)cc1 |  | inactive: -17.2%
CCCn1c(NC(=O)C23CC4CC(CC(O)(C4)C2)C3)nc2ccccc21 |  | inactive: -4.67%
O=C(c1cc2cc(Br)ccc2o1)N1CCCCC1 | active: 2.51 µM | 
Nc1nnc(SCC(=O)c2ccc3c(c2)NC(=O)CO3)s1 |  | inactive: -2.43%
CSC(C(=O)c1cc2ccccc2o1)c1ccccc1 (stereo unspecified) | inconclusive [activator, partial curve] | 
COc1cccc(NC(=O)c2ccccc2F)c1 | active: 3.98 µM | 
Cc1nc(-c2ccccc2Cl)sc1C(=O)/C=C/N(C)C | active: 3.16 µM | 
CC1(C)Cc2ccccc2-c2nnc(SCC(=O)N3CCN(c4ccccc4)CC3)n21 |  | inactive: 1.03%
CCCc1c(C)c2ccc(OCC(C)=O)cc2oc1=O | inconclusive [activator, partial curve] | 
C[C@@H](NC(=O)c1ncn(C)c1C(=O)N[C@H](C)c1ccccc1)c1ccccc1 |  | inactive: -6.99%
Cc1ccc(N2C(=O)c3ccc(N)cc3C2=O)cc1 | active: 3.55 µM | 
COC(=O)c1c(C)[nH]c(C(=O)/C=C/c2cccc(Cl)c2)c1C | inconclusive [activator, partial curve] | 
O=C(CSC1=NCCS1)Nc1nc2c(s1)CCCC2 | inconclusive [activator, single point] | 
N#C/C(=C/c1cccs1)c1nc2ccccc2[nH]1 | inconclusive [activator, single point] | 
CCOc1ccc2[nH]c3c(NCCN(C)C)ncnc3c2c1 |  | inactive: 1.93%
COc1ccccc1-n1c(=O)oc2ccc(Cl)cc2c1=O | inconclusive [activator, single point] | 
CC(C)N(C(C)C)S(=O)(=O)c1ccc(N2CCc3ccccc3C2)nc1 | inconclusive [activator, partial curve] | 
CCC(=O)Nc1cc2nn(-c3ccc(C)cc3)nc2cc1C | inconclusive [activator, full curve] | 
Cc1ccc(-c2nn(-c3ccccc3)cc2/C=N/NC(=O)CSc2nnc(C)n2-c2ccccc2)cc1 | inconclusive [activator, single point] | 
CC(C)(C)c1ccc(-c2nc(NCc3cccnc3)c3ccccc3n2)cc1 | inconclusive [activator, partial curve] | 
Cc1nn(C)c(C)c1C(C)NC(=O)c1cc(COc2ccc(F)c(F)c2)on1 (stereo unspecified) | inconclusive [activator, single point] | 
O=C(NCc1ccco1)Nc1ccc(Br)cc1Cl | inconclusive [activator, single point] | 
CCOc1cc(C2NN=C(c3ccccc3)S2)ccc1OCc1ccc(F)cc1 (stereo unspecified) | inconclusive [activator, partial curve] | 
COc1ccc2[nH]c(=O)c(CN(Cc3cccnc3)C(=O)Nc3ccccc3)cc2c1 |  | inactive: -3.4%
O=C(NCc1ccccc1Cl)c1cc2ccccc2oc1=O | inconclusive [activator, single point] | 
CC1CCCN(c2ncnc3c2cnn3-c2ccccc2)C1 (stereo unspecified) | active: 0.355 µM | 

Compound | Potency | activation
CCOc1ccc(-c2ccc(SCC(=O)Nc3nnc(CC)s3)nn2)cc1 | inconclusive [activator, partial curve] | 
COc1ccccc1CNC(=O)CSc1ccsc1[N+](=O)[O-] | inconclusive [activator, partial curve] | 
CN(Cc1nc(C(c2ccccc2)c2ccccc2)no1)CC1COCCO1 (stereo unspecified) | inconclusive [activator, single point] | 
O=C(Nc1ccccc1)Nc1ccc(Br)cc1F | inconclusive [activator, partial curve] | 
O=C(NC1CCC(O)CC1)c1ccc(-c2ccc(Cl)cc2)o1 (stereo unspecified) | inconclusive [activator, partial curve] | 
CCC1(C)N=C(c2ccc3c(c2)OCO3)CC(c2ccccc2O)N1 (stereo unspecified) |  | inactive: 11.4%
CCC(=O)NCCc1nc2cc(NC(=O)COc3ccccc3)ccc2n1C | inconclusive [activator, partial curve] | 
CCCCOc1ccc(C(=O)Nc2ccc(OCC(=O)N3CCOCC3)cc2)cc1 | inconclusive [activator, single point] | 
CC(C)(C)NC(=O)CN(C(=O)CCC(=O)Nc1nccs1)c1cccc(C(F)(F)F)c1 |  | inactive: 0.751%
O=C(NC1CC(=O)c2sccc21)c1ccc(Cl)cc1Cl (stereo unspecified) | inconclusive [activator, partial curve] | 
O=c1cccc2n1Cc1cc3ccccc3nc1-2 | active: 3.16 µM | 
O=[N+]([O-])c1ccccc1N/N=C1\CCc2ccccc21 | inconclusive [activator, single point] | 
COC(=O)C1=C(c2ccc(OC)cc2)OC(=O)C1(C)C |  | inactive: 0.235%
C=CCN=C1NN=C(c2ccc3c(c2)OCCO3)CS1 | active: 1 µM | 
O=c1n(-c2ccc(Br)cc2)cnn1-c1ncccc1[N+](=O)[O-] | inconclusive [activator, partial curve] | 
COc1ccc(C(=O)NC(=S)Nc2nc(C)cc(C)n2)cc1Br | inconclusive [activator, partial curve] | 
Cc1cc2nc(-c3ccc(SCC(=O)NC(C)C)nc3)[nH]c2cc1C | active: 2.82 µM | 
CC1CCc2c(sc(NC(=O)c3ccco3)c2C(=O)O)C1 (stereo unspecified) | inconclusive [activator, partial curve] | 
Cc1cccc2c1-c1sc(C(=O)Nc3cccnc3)cc1CO2 | inconclusive [activator, single point] | 
O=C(Nc1cccnc1Cl)c1ccc(Cl)cc1 | inconclusive [activator, single point] | 
COc1ccc(OCc2cc(C(=O)N3CCCC3)no2)c2ccccc12 | active: 3.16 µM | 
CCN(CC)C(=O)Cn1cc(C(=O)C(=O)NCCc2c[nH]c3ccccc23)c2ccccc21 | inconclusive [activator, single point] | 
O=c1cc(-c2ccccc2)nc2nc(COc3ccccc3)[nH]n12 |  | inactive: -0.777%
CCCc1cc(C(=O)NNC(=S)Nc2cccc(C)c2)cs1 | inconclusive [activator, single point] | 
